Positions count from the first letter of the chain named. No constants are given. Whether binding was seen depends on the method and setting. In cells and extracts the contact can be indirect. Some entries that bind do so weakly or less than the wild type. For some of these results: Sequences can lack the tags named with a protein.
How the values were obtained:
[1] = biological target: T1, endogenous SPHK2 (sphingosine kinase 2) (human (endogenous in A549)) (UniProt Q9NRA0); experiment: co-IP
T1 sequence: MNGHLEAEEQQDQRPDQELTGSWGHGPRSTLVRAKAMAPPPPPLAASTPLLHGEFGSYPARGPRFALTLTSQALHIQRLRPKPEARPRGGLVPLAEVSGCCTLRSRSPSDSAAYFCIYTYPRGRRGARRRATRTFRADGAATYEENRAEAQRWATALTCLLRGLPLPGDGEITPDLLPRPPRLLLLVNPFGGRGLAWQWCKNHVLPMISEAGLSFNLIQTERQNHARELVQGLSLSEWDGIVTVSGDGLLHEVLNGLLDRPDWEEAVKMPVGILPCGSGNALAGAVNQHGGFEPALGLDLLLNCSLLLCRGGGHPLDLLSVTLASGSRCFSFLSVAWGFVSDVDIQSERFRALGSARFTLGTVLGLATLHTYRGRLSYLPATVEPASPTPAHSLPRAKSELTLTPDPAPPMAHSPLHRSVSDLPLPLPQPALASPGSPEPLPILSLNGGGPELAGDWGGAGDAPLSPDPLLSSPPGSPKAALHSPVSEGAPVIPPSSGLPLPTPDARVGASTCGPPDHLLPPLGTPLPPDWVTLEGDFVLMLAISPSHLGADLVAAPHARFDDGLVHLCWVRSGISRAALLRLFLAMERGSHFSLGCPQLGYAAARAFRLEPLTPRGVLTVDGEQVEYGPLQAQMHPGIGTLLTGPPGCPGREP

Sequences of proteins named here, by UniProt entry; tags and fusion partners are left off.
UniProt Q13547: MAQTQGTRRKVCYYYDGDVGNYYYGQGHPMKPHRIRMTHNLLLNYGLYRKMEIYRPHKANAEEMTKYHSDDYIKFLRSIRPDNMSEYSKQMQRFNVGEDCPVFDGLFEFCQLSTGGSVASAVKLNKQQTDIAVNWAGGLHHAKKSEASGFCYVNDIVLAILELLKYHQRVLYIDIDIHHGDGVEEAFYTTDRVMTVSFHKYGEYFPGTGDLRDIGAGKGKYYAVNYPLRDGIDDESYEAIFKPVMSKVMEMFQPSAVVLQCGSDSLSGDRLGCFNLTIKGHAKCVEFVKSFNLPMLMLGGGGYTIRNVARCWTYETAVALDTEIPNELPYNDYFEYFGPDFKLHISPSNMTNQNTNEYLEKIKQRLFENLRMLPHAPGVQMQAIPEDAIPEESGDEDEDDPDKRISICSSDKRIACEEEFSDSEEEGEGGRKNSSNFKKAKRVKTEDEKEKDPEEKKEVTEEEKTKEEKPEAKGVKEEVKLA
UniProt O43151: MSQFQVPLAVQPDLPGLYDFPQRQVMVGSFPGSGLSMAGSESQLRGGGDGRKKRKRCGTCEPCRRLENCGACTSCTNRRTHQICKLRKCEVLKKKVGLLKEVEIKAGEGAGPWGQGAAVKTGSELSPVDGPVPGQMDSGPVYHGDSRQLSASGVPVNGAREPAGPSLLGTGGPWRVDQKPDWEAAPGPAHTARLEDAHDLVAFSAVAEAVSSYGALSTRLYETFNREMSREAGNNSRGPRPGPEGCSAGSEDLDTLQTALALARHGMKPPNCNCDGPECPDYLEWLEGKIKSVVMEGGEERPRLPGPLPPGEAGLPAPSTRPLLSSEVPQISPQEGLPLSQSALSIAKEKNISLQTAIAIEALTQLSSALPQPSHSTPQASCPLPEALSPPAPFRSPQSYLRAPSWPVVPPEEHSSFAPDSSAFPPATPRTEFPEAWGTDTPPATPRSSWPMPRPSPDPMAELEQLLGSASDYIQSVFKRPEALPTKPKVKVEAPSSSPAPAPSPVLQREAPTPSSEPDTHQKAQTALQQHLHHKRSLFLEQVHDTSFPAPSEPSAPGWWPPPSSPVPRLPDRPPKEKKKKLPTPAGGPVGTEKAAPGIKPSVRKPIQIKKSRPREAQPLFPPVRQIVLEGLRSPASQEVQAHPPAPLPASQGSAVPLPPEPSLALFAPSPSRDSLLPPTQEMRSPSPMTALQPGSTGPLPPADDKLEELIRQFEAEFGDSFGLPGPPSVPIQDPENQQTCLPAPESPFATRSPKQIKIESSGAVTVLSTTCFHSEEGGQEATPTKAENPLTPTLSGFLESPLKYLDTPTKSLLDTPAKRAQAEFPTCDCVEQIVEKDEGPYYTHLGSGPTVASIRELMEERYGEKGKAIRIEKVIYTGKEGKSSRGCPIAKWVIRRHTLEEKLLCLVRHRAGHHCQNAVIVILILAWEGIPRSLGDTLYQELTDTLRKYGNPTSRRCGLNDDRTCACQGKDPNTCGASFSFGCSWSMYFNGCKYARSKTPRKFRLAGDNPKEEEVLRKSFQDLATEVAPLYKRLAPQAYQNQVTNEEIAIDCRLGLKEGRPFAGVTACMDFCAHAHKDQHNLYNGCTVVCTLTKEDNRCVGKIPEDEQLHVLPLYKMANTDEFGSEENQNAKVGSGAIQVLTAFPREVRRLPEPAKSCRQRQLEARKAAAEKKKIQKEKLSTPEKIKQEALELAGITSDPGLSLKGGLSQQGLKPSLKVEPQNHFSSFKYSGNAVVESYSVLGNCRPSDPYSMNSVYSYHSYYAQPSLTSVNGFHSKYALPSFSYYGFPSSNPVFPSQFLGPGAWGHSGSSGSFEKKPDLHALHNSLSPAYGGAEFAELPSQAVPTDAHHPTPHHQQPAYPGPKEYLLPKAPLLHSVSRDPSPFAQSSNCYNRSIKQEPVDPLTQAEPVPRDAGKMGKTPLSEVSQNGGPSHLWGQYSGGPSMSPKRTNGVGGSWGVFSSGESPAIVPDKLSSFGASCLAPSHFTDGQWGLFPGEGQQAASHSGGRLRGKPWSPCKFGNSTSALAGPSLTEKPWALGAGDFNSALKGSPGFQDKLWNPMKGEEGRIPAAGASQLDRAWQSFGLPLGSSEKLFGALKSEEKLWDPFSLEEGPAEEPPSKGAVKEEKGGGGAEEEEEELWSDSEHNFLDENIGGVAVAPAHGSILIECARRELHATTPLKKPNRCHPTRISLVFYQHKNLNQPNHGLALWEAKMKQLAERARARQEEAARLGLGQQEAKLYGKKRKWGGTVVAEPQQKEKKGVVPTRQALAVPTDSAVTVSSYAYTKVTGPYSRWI

[2] = biological target: T2, Myc-SPHK2-G212E (catalytic-incompetent mutant) (human) (UniProt Q9NRA0); experiment: co-IP; A549 cells transfected with Myc-tagged SPHK2 constructs; Triton X-100 lysis buffer (20 mM Tris-HCl pH 7.5, 100 mM NaCl, 0.5 mM EDTA, 5% glycerol, 1% Triton X-100); anti-Myc antibody and protein A/G beads, 4°C 4 h; blots for endogenous HDAC1 and TET3
T2 sequence: T1 sequence with G212E

[3] = biological target: T3, Myc-tagged SPHK2 (sphingosine kinase 2), full length (human) (UniProt Q9NRA0); experiment: as above
T3 sequence: T1 sequence

[4] = biological target: T1, endogenous SPHK2 (sphingosine kinase 2) (human (endogenous in A549)); experiment: co-IP; uninfected A549 cells; endogenous SPHK2 precipitated with anti-human SPHK2 polyclonal antibody (Proteintech 17096-1-AP); blots for HDAC1 and TET3
[5] = biological target: T4, Myc-SPHK2-F3 (Δ245–248) (human) (UniProt Q9NRA0); experiment: co-IP; A549 cells transfected with Myc-tagged SPHK2 constructs; Triton X-100 lysis buffer (20 mM Tris-HCl pH 7.5, 100 mM NaCl, 0.5 mM EDTA, 5% glycerol, 1% Triton X-100); anti-Myc antibody and protein A/G beads, 4°C 4 h; blots for endogenous HDAC1 and TET3
T4 sequence: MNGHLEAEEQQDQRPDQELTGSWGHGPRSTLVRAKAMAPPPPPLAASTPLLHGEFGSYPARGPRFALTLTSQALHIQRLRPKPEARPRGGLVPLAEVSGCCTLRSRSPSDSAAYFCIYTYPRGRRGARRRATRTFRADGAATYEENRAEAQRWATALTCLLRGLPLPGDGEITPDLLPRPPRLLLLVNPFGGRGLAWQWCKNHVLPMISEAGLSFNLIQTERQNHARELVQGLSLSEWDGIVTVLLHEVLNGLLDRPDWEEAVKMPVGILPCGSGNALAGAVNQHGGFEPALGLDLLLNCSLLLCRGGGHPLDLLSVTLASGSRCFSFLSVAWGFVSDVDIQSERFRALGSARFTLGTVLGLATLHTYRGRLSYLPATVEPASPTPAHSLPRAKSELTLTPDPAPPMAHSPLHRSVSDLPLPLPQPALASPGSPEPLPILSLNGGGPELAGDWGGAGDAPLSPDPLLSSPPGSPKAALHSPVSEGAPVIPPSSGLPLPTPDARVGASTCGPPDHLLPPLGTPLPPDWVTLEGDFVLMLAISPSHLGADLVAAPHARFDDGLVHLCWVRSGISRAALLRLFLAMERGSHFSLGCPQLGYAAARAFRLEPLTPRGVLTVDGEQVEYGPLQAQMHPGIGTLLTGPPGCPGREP

[6] = biological target: T5, Myc-SPHK2-F1 (Δ1–69) (human) (UniProt Q9NRA0); experiment: as above
T5 sequence: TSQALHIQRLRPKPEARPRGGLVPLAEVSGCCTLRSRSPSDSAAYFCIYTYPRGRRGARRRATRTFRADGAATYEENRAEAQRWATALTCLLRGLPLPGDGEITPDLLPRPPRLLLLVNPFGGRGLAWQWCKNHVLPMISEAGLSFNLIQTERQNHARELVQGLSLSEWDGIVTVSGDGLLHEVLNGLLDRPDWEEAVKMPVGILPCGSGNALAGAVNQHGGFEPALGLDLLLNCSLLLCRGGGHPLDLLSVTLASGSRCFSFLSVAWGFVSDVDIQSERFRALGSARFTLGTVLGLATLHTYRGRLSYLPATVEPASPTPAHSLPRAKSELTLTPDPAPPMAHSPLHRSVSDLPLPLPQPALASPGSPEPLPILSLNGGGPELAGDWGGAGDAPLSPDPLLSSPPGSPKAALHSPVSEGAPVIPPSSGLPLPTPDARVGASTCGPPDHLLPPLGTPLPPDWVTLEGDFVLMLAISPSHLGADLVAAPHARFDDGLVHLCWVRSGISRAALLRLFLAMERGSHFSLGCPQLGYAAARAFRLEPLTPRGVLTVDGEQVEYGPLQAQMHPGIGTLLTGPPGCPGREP

[7] = biological target: T6, Myc-SPHK2-F2 (Δ391–514) (human) (UniProt Q9NRA0); experiment: as above
T6 sequence: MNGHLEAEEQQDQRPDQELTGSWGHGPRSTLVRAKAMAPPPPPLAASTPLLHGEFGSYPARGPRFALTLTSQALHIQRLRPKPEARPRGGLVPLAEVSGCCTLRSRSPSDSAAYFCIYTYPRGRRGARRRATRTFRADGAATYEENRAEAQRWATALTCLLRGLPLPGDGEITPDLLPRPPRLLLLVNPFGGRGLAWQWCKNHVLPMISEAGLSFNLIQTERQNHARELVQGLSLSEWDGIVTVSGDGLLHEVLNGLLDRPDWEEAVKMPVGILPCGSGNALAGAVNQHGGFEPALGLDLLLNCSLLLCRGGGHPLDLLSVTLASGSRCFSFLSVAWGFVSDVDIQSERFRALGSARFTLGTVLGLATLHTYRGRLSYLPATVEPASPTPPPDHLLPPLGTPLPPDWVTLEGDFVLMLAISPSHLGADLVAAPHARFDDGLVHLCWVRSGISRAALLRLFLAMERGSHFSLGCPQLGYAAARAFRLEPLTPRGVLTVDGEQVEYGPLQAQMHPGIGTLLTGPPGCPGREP

Substance | binding [1] | binding [2] | binding [3] | binding [4] | binding [5] | binding [6] | binding [7]
endogenous HDAC1 (histone deacetylase 1) (from UniProt Q13547 1-482) (enzyme) | binds | binds | binds | – | – | – | –
endogenous TET3 (ten-eleven translocation protein 3) (from UniProt O43151 1-1795) (enzyme) | binds | binds | binds | no binding (condition: in uninfected A549 cells) | no binding | binds | binds

Reference: PMC9451060
